# From PubChem BioAssay AID504832 (National Center for Advancing Translational Sciences (NCATS), 2011)
# The campaign covered roughly 310,000 compounds. About 18,000 (5.8%) were called active. The inconclusive results got no clear call from the source; some entries with a clear call stand among them for comparison. The call rests on the fitted dose curve; in most records, active means well fitted inhibition curve with a large enough effect; inconclusive means small, poorly fitted or top-dose-only effect, or another doubt; inactive means no such curve, though single readings can be large or run the other way. No potency is given beside an inconclusive call; the fits are too rough.
# Assay: Primary qHTS for delayed death inhibitors of the malarial parasite plastid, 48 hour incubation
# Conditions: P. falciparum luciferase growth in erythrocytes; series mostly up to 28.7 µM; activity change, negative = inhibition: at the top concentration
# How it was run: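 Parasite viability was followed by luminescence of a genomically integrated firefly luciferase. Cultures held 0.1% parasitemia at 2% hematocrit (final), incubated under 5% CO2 at 37 C.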
# On the % scale 0 is the no-effect control and ±100 the full control effect; potency means the concentration at half of the fitted maximal effect; tags describe the fitted curve by direction and shape.
SMILES,Potency,"activity change, negative = inhibition"
CCCN(CCC)CC(O)Cn1cc(/C=C/C(=O)c2ccccc2)c2ccccc21 (centres undefined),"inconclusive [inhibitor, partial curve]",–
Cc1cc(C(F)(F)F)nn1CC(=O)NCC1CCCO1 (centres undefined),"inconclusive [inhibitor, single point]",–
COc1cc2c(cc1OC)C(C)N(C(C)=O)CC2 (centres undefined),–,inactive: 17%
O=C(Nc1sc2c(c1C(=O)NC1CCCCC1)CCC2)c1ccco1,–,inactive: 3.67%
CC1=C(C#N)C(NC(=O)c2ccc(Cl)cc2)(C(F)(F)F)C(=O)N1 (centres undefined),–,inactive: -10.7%
COc1ccc(CC(=O)NNC(=O)CSc2nc(C)c(C)c(=O)[nH]2)cc1,–,inactive: 9.77%
Cc1ccccc1NC(=S)N(CCN1CCCCCC1)Cc1cccs1,"inconclusive [inhibitor, single point]",–
COc1ccccc1NC(=O)CSc1ccc(-c2ccc(-n3ccnc3)cc2)nn1,active: 11.7 µM,–
O=C(Nc1ccccc1)N1CC=C(c2ccc(F)cc2)CC1,active: 10.4 µM,–
Cc1[nH]n(-c2cccc3ccccc23)c(=O)c1/C=N/c1sc2c(c1C#N)CCC2,"inconclusive [inhibitor, partial curve, poor fit]",–
Cc1ccc(S(=O)(=O)N2CCC(C(=O)OCC(=O)N3CCCC(C)C3)CC2)cc1C (centres undefined),"inconclusive [inhibitor, single point]",–
CCN(CC)C(=O)CSc1nnc2nnc3cc(OC)ccc3n12,–,inactive: -23.3%
CC(CNC(=O)c1ccccc1Cl)c1ccccc1 (centres undefined),–,inactive: 49.4%
CCOC(=O)Cn1c(-c2ccccc2)nc2ccccc2c1=O,"inconclusive [inhibitor, full curve, poor fit]",–
C/C(=N/N=C/c1ccc(N(C)C)cc1)c1ccccc1,–,inactive: 250%
CC(NCc1ccccc1O)c1ccccc1 (centres undefined),"inconclusive [inhibitor, full curve, poor fit]",–
C=CCN1C(=O)N(c2ccc(F)cc2)C(=O)C1CC(=O)Nc1ccc(Cl)cc1 (centres undefined),"inconclusive [inhibitor, single point]",–
CCOC(=O)c1cc(-c2ccccc2)nc2nc(N(CC)CC)sc12,active: 9.28 µM,–
O=[N+]([O-])c1ccc2c(c1)C(N1CCOCC1)/C(=C/COc1ccc3ccccc3c1Br)O2 (centres undefined),active: 6.57 µM,–
Cc1cc(=O)[nH]c(Sc2c(-c3ccccc3)c3ccccc3[nH]c2=O)n1,"inconclusive [inhibitor, full curve]",–
COc1cccc(/C=C/C(=O)c2ccc3c(c2)OCCO3)c1OC,–,inactive: 74.8%
Cc1cc(C(=O)NNc2ccc(C)c(C)c2)no1,–,inactive: 10%
COc1ccc(C(C)=O)c(Oc2nc(CN3CCOCC3)nc3scc(-c4cccs4)c23)c1,"inconclusive [inhibitor, partial curve, poor fit]",–

SMILES,Potency,"activity change, negative = inhibition"
N#CCC(=O)Nc1ccc(C(=O)OCC(=O)c2ccc3c(c2)NC(=O)CO3)cc1,active: 13.1 µM,–
CCOc1cccc(-c2nn3c(-c4ccccn4)nnc3s2)c1,"inconclusive [inhibitor, single point]",–
COc1ccc2c(c1)C=C([C@@H]1C[C@H]3CN(c4ccccc4)C(=O)[C@]34CCCN14)CO2,active: 1.47 µM,–
Cc1ccc(CNCC(O)(c2ccccc2)c2ccc(F)cc2)cc1 (centres undefined),"inconclusive [inhibitor, full curve]",–
CC(C)(C)NC(=O)c1ccc2c(c1)N(CC(=O)NC1CCCC1)C(=O)C(C)(C)O2,"inconclusive [inhibitor, single point]",–
Cc1cccc(NC(=O)CSc2nc3nc(C)cc(C)c3c(=O)[nH]2)c1,"inconclusive [inhibitor, single point]",–
CCCCCCn1cc(C(=O)O)c(=O)c2ccccc21,"inconclusive [inhibitor, single point]",–
COc1ccc(/C=C/C(=O)O/N=C(\N)c2cccnc2)cc1OC,"inconclusive [inhibitor, single point]",–
Cn1c(CC(=O)NNC(=O)c2cccnc2)nc2ccccc21,–,inactive: 0.556%
CCn1c(COc2c(C)cccc2C)nnc1SCC(=O)N1CCN(c2ccccc2)CC1,"inconclusive [inhibitor, full curve, poor fit]",–
CCOC(=O)c1c(C)[nH]c(C)c1C(=O)COC(=O)/C=C/c1ccco1,"inconclusive [inhibitor, single point]",–
CCOC(=O)C1CCCN(CC(=O)Nc2c(C(=O)OC)[nH]c3ccccc23)C1 (centres undefined),"inconclusive [inhibitor, partial curve]",–
Cc1ccc(C(=O)NNC(=O)CNc2cccc(Cl)c2)cc1,–,inactive: 12.3%
Cc1cc(SCC(=O)c2cc3ccccc3o2)nc2ccccc12,"inconclusive [inhibitor, single point]",–
Cc1cccc(NC(=S)NC(=O)Cc2ccccc2)c1C,"inconclusive [inhibitor, partial curve, poor fit]",–
O=C(NC1CCCCC1)c1cccc(OCc2ccccc2)c1,–,inactive: -21.4%
Cc1cc(C)c2nc(NC3=NCN(CCN4CCOCC4)CN3)nc(C)c2c1,"inconclusive [inhibitor, single point]",–
COc1ccc(C2CC(C(F)(F)F)n3ncc(C(=O)Nc4c(C)n(C)n(-c5ccccc5)c4=O)c3N2)cc1 (centres undefined),"inconclusive [inhibitor, single point]",–
O=C1C2C3c4ccccc4C(c4ccccc43)[C@@H]2C(=O)N1c1cccnc1 (some centres undefined),–,inactive: -2.44%
CCOC(=O)c1c(-c2ccc(OC)cc2)csc1NC(=O)C1CCCO1 (centres undefined),"inconclusive [inhibitor, single point]",–
CCOc1ccc(OCC)c(NC(=O)C2CCN(c3nn4c(=O)cc(C)nc4s3)CC2)c1,"inconclusive [inhibitor, partial curve, poor fit]",–
O=C(NCc1n[nH]c(=S)n1-c1ccc(Cl)c(Cl)c1)c1cccs1,"inconclusive [inhibitor, partial curve, poor fit]",–
O=C(Nc1ccc(C(F)(F)F)cc1)c1ccc(NC(=O)C2CCCO2)cc1 (centres undefined),–,inactive: -17.8%

SMILES,Potency,"activity change, negative = inhibition"
COCC(C)n1c(SCc2cc(=O)n3cc(C)ccc3n2)nc2ccccc2c1=O (centres undefined),"inconclusive [inhibitor, full curve, poor fit]",–
Cc1ccccc1N1CCN(CCCN2C(=O)CC(=C(c3ccccc3)c3ccccc3)C2=O)CC1,–,inactive: -1.17%
Cc1ccc(N(CC(=O)NCc2ccc3c(c2)OCO3)C(=O)CCC(=O)Nc2ccccn2)cc1,"inconclusive [inhibitor, single point]",–
Cc1ccc(-c2csc(NCCn3c(-c4ccncc4)nc4ccccc43)n2)cc1,–,inactive: -3.63%
CCc1cc(-c2onc(C)c2-c2cscn2)c(O)cc1OC,"inconclusive [inhibitor, single point]",–
O=C(Nc1ccccc1C(=O)NCC1CCCO1)c1ccco1 (centres undefined),"inconclusive [inhibitor, partial curve, poor fit]",–
COc1cc(/C=C2/C(=N)N3C(=NC2=O)SN=C3S(C)(=O)=O)ccc1OS(=O)(=O)c1ccc(C)cc1,"inconclusive [inhibitor, partial curve, poor fit]",–
Cc1cccc(NC(=O)C2c3ccccc3C(=O)N3CCc4ccccc4C23)n1 (centres undefined),"inconclusive [inhibitor, partial curve, poor fit]",–
Cc1ccc([N+](=O)[O-])cc1S(=O)(=O)Nc1ccc(-c2ccc(N3CCOCC3)nn2)cc1,"inconclusive [inhibitor, single point]",–
CC(=O)NC12CC3CC(C1)CC(C(=O)N(C)CC(=O)Nc1ccc(F)c(F)c1F)(C3)C2,–,inactive: -24.5%
CC(=O)Oc1ccc(-c2cccc(C(=O)OCC(=O)Nc3ccccc3Oc3ccccc3)c2)cc1,"inconclusive [inhibitor, partial curve]",–
O=c1[nH]c2cc3c(cc2cc1CN(CC1CCCO1)S(=O)(=O)c1ccccc1)OCCO3 (centres undefined),"inconclusive [inhibitor, partial curve, poor fit]",–
Cc1ccc2nc(N3C(=O)C(O)=C(C(=O)c4cc5ccccc5o4)C3c3cccs3)sc2c1 (centres undefined),–,inactive: 147%
N=c1c(C(=O)NCc2ccc3c(c2)OCO3)cc2c(=O)n3ccccc3nc2n1Cc1cccnc1,active: 10.4 µM,–
CCNC(=O)CN1C(=O)NC(Cc2ccccc2)(Cc2ccccc2)C1=O,"inconclusive [inhibitor, single point]",–
CC(C)n1c(O)c(/C=C2\C=Nc3ccccc32)sc1=Nc1ccccc1,"inconclusive [inhibitor, partial curve]",–
Cc1ccc(-n2c(SCC(=O)c3c(N)n(C)c(=O)n(C)c3=O)nc3sc4c(c3c2=O)CCCC4)c(C)c1,active: 1.17 µM,–
COc1cccc(C2=NN(C(C)=O)C(c3cccs3)C2)c1 (centres undefined),–,inactive: 20.6%
O=C(NC1CCCCC1)C(c1ccco1)N(C(=O)c1csnn1)C1CCCC1 (centres undefined),"inconclusive [inhibitor, partial curve, poor fit]",–
CC(C(=O)NCCN1C(=O)S/C(=C\c2cccnc2)C1=O)N1C(=O)c2ccccc2C1=O (centres undefined),"inconclusive [inhibitor, partial curve]",–
Cc1ccc(NC(=O)C(=O)NCCOc2ccc(Cl)cc2)c(C)c1,–,inactive: -3.12%
COc1ccc(C(CNC(=O)COc2c(C)cc(C)cc2C)N2CCOCC2)cc1 (centres undefined),"inconclusive [inhibitor, single point]",–
Cc1[nH]n(C(N)=S)c(=O)c1N=Nc1ccc(Br)cc1,–,inactive: 2.1%
